Experimental data: the supplement of paper PMC4604168 (melanoma cell lines)
The other results are listed elsewhere or left out. Single values are uncertain, as repeats are few or missing.

System: WM1745
Test: cell count relative to DMSO control; melanoma cells; higher = more viable cells
Conditions: library dose: low library concentration; 72 h
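Note: cell number obtained by counting DAPI-stained nuclei in high-throughput microscope images with image analysis software, screen run in 1,536-well plates.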

Structure (SMILES) | cell count [%]
Cc1nc(Nc2ncc(C(=O)Nc3c(C)cccc3Cl)s2)cc(N2CCN(CCO)CC2)n1 [dasatanib] + COc1cc(Nc2ncc(F)c(Nc3ccc4c(n3)NC(=O)C(C)(C)O4)n2)cc(OC)c1OC [Tamatinib] (first compound 0.004 µM, partner dose 0.4 µM) | 50.4
CN(C)S(=O)(=O)c1ccc2c(c1)/C(=C/c1cc3c([nH]1)CCCC3)C(=O)N2 + COC(=O)c1sccc1S(=O)(=O)Nc1ccc(Nc2ccccc2)cc1OC [GSK0660] (first compound 0.4 µM, partner dose 1 µM) | 84.6
CN(C)S(=O)(=O)c1ccc2c(c1)/C(=C/c1cc3c([nH]1)CCCC3)C(=O)N2 + NCC(=O)Nc1ccc(-n2nc(C(F)(F)F)cc2-c2ccc3c(ccc4ccccc43)c2)cc1 [OSU03012] (first compound 0.4 µM, partner dose 1 µM) | 96.7

System: WM3526
Test: as above
Conditions: library dose: low library concentration; 72 h

Structure (SMILES) | cell count [%]
NC(=O)Nc1cc(-c2cccc(F)c2)sc1C(=O)N[C@H]1CCCNC1 + CC(C)CCN1c2nc(Nc3cc(F)c(O)c(F)c3)ncc2N(C)C(=O)C1C [BID1870] (first compound 0.02 µM, partner dose 0.2 µM) | 74.5
CN(C)S(=O)(=O)c1ccc2c(c1)/C(=C/c1cc3c([nH]1)CCCC3)C(=O)N2 + O=C(O)c1ccc(-c2c[nH]c3ncc(-c4ccccc4)cc23)cc1C1CCCC1 [GSK650394] (first compound 0.4 µM, partner dose 0.16 µM) | 91.5
Cc1nc(Nc2ncc(C(=O)Nc3c(C)cccc3Cl)s2)cc(N2CCN(CCO)CC2)n1 [dasatanib] + O=C(Nc1cccc(Cl)c1)Nc1ncc(CCNc2ncnc3ccsc23)s1 [SNS314] (first compound 0.004 µM, partner dose 0.0008 µM) | 91.2
CN(C)S(=O)(=O)c1ccc2c(c1)/C(=C/c1cc3c([nH]1)CCCC3)C(=O)N2 + COc1cc2ncnc(Nc3ccc(Oc4ccccc4)cc3)c2cc1OC [SrcI1] (first compound 0.4 µM, partner dose 2 µM) | 84.8
C=CCn1c(=O)c2cnc(Nc3ccc(N4CCN(C)CC4)cc3)nc2n1-c1cccc(C(C)(C)O)n1 + N#Cc1c(O)c2c(-c3ccc(-c4ccccc4O)cc3)csc2[nH]c1=O [A769662] (first compound 0.02 µM, partner dose 2 µM) | 94.9
CN(C)S(=O)(=O)c1ccc2c(c1)/C(=C/c1cc3c([nH]1)CCCC3)C(=O)N2 + Cn1cc(/C=C2\C(=O)Nc3cccnc32)c2ccccc21 [GW441756] (first compound 0.4 µM, partner dose 0.4 µM) | 113
NCC(=O)Nc1ccc(-n2nc(C(F)(F)F)cc2-c2ccc3c(ccc4ccccc43)c2)cc1 + CN(NC(=O)CC(=O)NN(C)C(=S)c1ccccc1)C(=S)c1ccccc1 [STA4783] (first compound 1 µM, partner dose 0.006 µM) | 50.4
OCCn1cc(-c2cnc3nnn(Cc4ccc5ncccc5c4)c3n2)cn1 + COc1ccc(-c2ccc3c(N4CCOCC4)nc(N4C[C@@H](C)O[C@@H](C)C4)nc3n2)cc1CO [KU0063794] (first compound 1 µM, partner dose 0.02 µM) | 97.9
Cc1nc(Nc2ncc(C(=O)Nc3c(C)cccc3Cl)s2)cc(N2CCN(CCO)CC2)n1 [dasatanib] + Cc1ccc(NC(=O)c2cccc(N(C)C)c2)cc1NC(=O)c1ccc(O)cc1 [ZM336372] (first compound 0.004 µM, partner dose 2 µM) | 102
CO[C@@H]1[C@H](N(C)C(=O)c2ccccc2)C[C@H]2O[C@]1(C)n1c3ccccc3c3c4c(c5c6ccccc6n2c5c31)C(=O)NC4 [Midostaurin] + CC(C)(C)c1cnc(CSc2cnc(NC(=O)C3CCNCC3)s2)o1 [SNS-032] (first compound 0.08 µM, partner dose 0.01 µM) | 107
C[C@]1(c2nc3c(C(N)=O)cccc3[nH]2)CCCN1 [Veliparib] + COc1ccc(-c2ccc3c(N4CCOCC4)nc(N4C[C@@H](C)O[C@@H](C)C4)nc3n2)cc1CO [KU0063794] (first compound 1.4 µM, partner dose 0.02 µM) | 89
C[C@]1(c2nc3c(C(N)=O)cccc3[nH]2)CCCN1 [Veliparib] + NCC(=O)Nc1ccc(-n2nc(C(F)(F)F)cc2-c2ccc3c(ccc4ccccc43)c2)cc1 [OSU03012] (first compound 1.4 µM, partner dose 1 µM) | 49.5
